Test [1] deals with HSkMC (human skeletal muscle cells). The test is described as follows: cytotoxicity call (relative viability < 0.9). The conditions noted are these: 10 µM.
Test [2] deals with HepG2. The test can be described thus: cytotoxicity call (relative viability < 0.9). The conditions noted are these: 10 µM.
Test [3] relates to S. aureus RN4220. The test can be described thus: growth inhibition call (relative growth <= 0.2). The conditions noted are these: 50 µM.

Molecules are shown by their SMILES. The list shows a part of the results.

Consider `CO[C@@H]1CN(C)C(=O)c2cc(NS(C)(=O)=O)ccc2OC[C@H](C)N(S(C)(=O)=O)C[C@H]1C`, for which the cytotoxicity call in test [1] and in test [2] was “inactive” in each case. Besides, the growth inhibition call in test [3] is “inactive”.
Turning to `O=C1N[C@H](Cc2ccccc2)COC(=O)[C@@H](Cc2ccc(F)cc2)CCC=CC[C@@H]1CC(=O)N(CCO)Cc1ccccc1`, the cytotoxicity call in test [1] and in test [2] was “inactive” in each case. Further, the growth inhibition call in test [3] was “inactive”.
Consider `CC(C)NC(=O)Nc1ccc2c(c1)C(=O)N([C@H](C)CO)C[C@H](C)[C@@H](CN(C)Cc1ccc(-c3ccccc3)cc1)O2`, for which the cytotoxicity call in test [1] and in test [2] was “inactive” throughout. Further, the growth inhibition call in test [3] is “inactive”.
For the compound `C[C@@H]1CN([C@H](C)CO)C(=O)Cc2cc(NS(=O)(=O)c3ccc(Cl)cc3)ccc2O[C@H]1CN(C)C(=O)Nc1ccc(C(F)(F)F)cc1`, the cytotoxicity call in test [1] and in test [2] was “inactive” each time. For the same compound, the growth inhibition call in test [3] is “inactive”.
As to `C[C@@H]1CN([C@@H](C)CO)C(=O)c2c(c3ccccc3n2C)-c2ccccc2CO[C@@H]1CN(C)Cc1ccccc1C(F)(F)F`, the cytotoxicity call in test [1] is “active”. In addition, in test [2], the cytotoxicity call was “inactive”. In test [3], the growth inhibition call is “inactive”.
With `[O-][n+]1cccc(CO)c1`, the cytotoxicity call in test [1] and in test [2] was “inactive” throughout. Besides, in test [3], the growth inhibition call is “inactive”.
With `C[C@H](CO)N1C[C@H](C)[C@H](CN(C)S(C)(=O)=O)Oc2ccc(NC(=O)CCC(F)(F)F)cc2CC1=O`, the cytotoxicity call in test [1] and in test [2] was “inactive” in each case. Also, the growth inhibition call in test [3] was “inactive”.
In the case of `CC(C)NCC(O)c1ccc2ccccc2c1.Cl` (stereo not given), the cytotoxicity call in test [1] and in test [2] was “inactive” each time. In addition, in test [3], the growth inhibition call was “inactive”.
With `C[C@@H]1CN([C@H](C)CO)C(=O)c2cc(NC(=O)Cn3cnnn3)ccc2O[C@@H]1CN(C)Cc1ccc2c(c1)OCO2`, the cytotoxicity call in test [1] and in test [2] was “inactive” in each case. For the same compound, the growth inhibition call in test [3] is “inactive”.
As for `O=C1C[C@]2(c3ccc([N+](=O)[O-])cc3)C(=O)N(Cc3ccccc3)c3cc(CO)ccc3[C@H]2N1C1CCCCC1`, the cytotoxicity call in test [1] and in test [2] was “inactive” each time. Besides, the growth inhibition call in test [3] is “inactive”.
Regarding `CNC(=O)C(=O)NC[C@H](c1ccc2c(c1)OCO2)N1CCOCC1`, the cytotoxicity call in test [1] and in test [2] was “inactive” each time. For the same compound, the growth inhibition call in test [3] was “inactive”.
`Cc1cccc(S(=O)(=O)N2C[C@H](O)COC[C@@H]3O[C@H](CC(=O)N4CCN(C)CC4)CC[C@H]32)c1`: the cytotoxicity call in test [1] and in test [2] was “inactive” in each case. Further, the growth inhibition call in test [3] is “inactive”.
In the case of `CCCC#Cc1ccc2c(c1)O[C@H](CN(C)S(=O)(=O)c1cccc(OC)c1)[C@H](C)CN([C@H](C)CO)S2(=O)=O`, the cytotoxicity call in test [1] and in test [2] was “inactive” throughout. The growth inhibition call in test [3] is “inactive”.
As for `C[C@@H]1CN([C@H](C)CO)C(=O)CCCn2nncc2CO[C@H]1CN(C)C(=O)Nc1ccnc(N2CCOCC2)c1`, the cytotoxicity call in test [1] and in test [2] was “inactive” throughout. Besides, in test [3], the growth inhibition call was “inactive”.
As to `C[C@@H]1CN([C@@H](C)CO)C(=O)c2cc(NS(=O)(=O)c3ccc(Cl)cc3)ccc2O[C@@H](C)CCCCO[C@@H]1CN(C)C(=O)Nc1ccc2c(c1)OCO2`, the cytotoxicity call in test [1] and in test [2] was “inactive” each time. Further, in test [3], the growth inhibition call is “inactive”.
For `O=C(C[C@@H]1CC[C@@H]2[C@H](COC[C@H](O)CN2S(=O)(=O)c2ccccc2)O1)N[C@H]1CCN(Cc2ccccc2)C1`, the cytotoxicity call in test [1] and in test [2] was “inactive” in each case. For the same compound, the growth inhibition call in test [3] is “inactive”.
For `O=C(C[C@@H]1C=C[C@H](NC(=O)CN2CCOCC2)[C@H](CO)O1)NC1CCCCC1`, the cytotoxicity call in test [1] and in test [2] was “inactive” in each case. In addition, the growth inhibition call in test [3] was “inactive”.
For the compound `Cc1noc(C)c1NC(=O)Nc1ccc2c(c1)CC(=O)N([C@H](C)CO)C[C@H](C)[C@H](CN(C)C(=O)Nc1cccc3ccccc13)O2`, the cytotoxicity call in test [1] and in test [2] was “inactive” throughout. In test [3], the growth inhibition call is “inactive”.
Consider `C[C@H]1CN([C@@H](C)CO)S(=O)(=O)c2ccc(Br)cc2O[C@@H]1CN(C)C(=O)Cc1cccnc1`, for which the cytotoxicity call in test [1] and in test [2] was “inactive” throughout. Besides, the growth inhibition call in test [3] was “inactive”.
With `C[C@@H]1CN([C@H](C)CO)C(=O)c2cc(NC(=O)C3CCCCC3)ccc2O[C@@H](C)CCCCO[C@@H]1CN(C)C(=O)c1ccccc1`, the cytotoxicity call in test [1] and in test [2] was “inactive” throughout. The growth inhibition call in test [3] was “inactive”.
For `N#C[C@@H]1[C@@H](c2ccc(C#Cc3ccccn3)cc2)[C@H](CO)N1C(=O)CN1CCOCC1`, the cytotoxicity call in test [1] and in test [2] was “inactive” throughout. Moreover, the growth inhibition call in test [3] is “inactive”.
For `O=c1ccc(=O)n(-c2ccccc2)[nH]1`, the cytotoxicity call in test [1] and in test [2] was “inactive” in each case. Further, in test [3], the growth inhibition call was “inactive”.
For the compound `CCCN(C)C[C@H]1Oc2cc(C#Cc3cccc(OC)c3)ccc2S(=O)(=O)N([C@H](C)CO)C[C@H]1C`, the cytotoxicity call in test [1] and in test [2] was “inactive” throughout. Also, the growth inhibition call in test [3] was “inactive”.
Turning to `C[C@H](CO)N1C[C@H](C)[C@@H](CN(C)CC2CCCCC2)OCCCC[C@H](C)Oc2ccc(NC(=O)Nc3cccc4ccccc34)cc2C1=O`, the cytotoxicity call in test [1] is “inactive”. Moreover, the cytotoxicity call in test [2] was “active”. Also, the growth inhibition call in test [3] is “inactive”.
Regarding `C[C@@H]1CN([C@@H](C)CO)C(=O)c2cccc(NC(=O)CCCCCC(=O)Nc3ccccc3N)c2O[C@H]1CN(C)Cc1ccc(C(F)(F)F)cc1`, the cytotoxicity call in test [1] and in test [2] was “inactive” throughout. Moreover, in test [3], the growth inhibition call was “inactive”.
